Reference: PubChem BioAssay AID588342 (National Center for Advancing Translational Sciences (NCATS), 2011)
Where “and” joins values, the source holds several entries; their conditions need not be identical. Equal entries are not always repeated. About 25,000 (6.9%) of roughly 360,000 compounds were called active. Inconclusive means that the source gave no clear call. Such entries were picked first, then a sample of the others. Calls come from the whole dose curve; as a rule, active = well fitted inhibition curve with a large enough effect; inconclusive = small, poorly fitted or top-dose-only effect; inactive = flat fitted curve, though single readings scatter. Potencies of inconclusive entries are doubtful fits and often do not repeat.

target: Luciferin 4-monooxygenase (Photinus pyralis) (UniProt P08659); experiment: qHTS profiling assay for firefly luciferase inhibitor/activator using purifed enzyme and Km concentrations of substrates (counterscreen for miR-21 project); conditions: purified FLuc, luminescence inhibition; activity change, negative = inhibition: at 57.5 µM (top of the series); note: nearly all actives have a fitted effect of over 55% in size;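 for activity change, negative = inhibition: plate controls were vehicle for no effect and reference inhibitor for full effect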
Summary of the method: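 Biochemical qHTS of compounds, final roughly 60 µM downward over six points, against 10 nM purified firefly luciferase using Km concentrations of substrates (10 uM D-luciferin, 10 uM ATP) in Tris acetate pH 7.5 buffer; luminescence output.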
Potency is the fitted concentration of half-maximal effect; tags give direction and shape of the fitted curve.

UniProt P08659, sequence (P08659 whole entry, looked up): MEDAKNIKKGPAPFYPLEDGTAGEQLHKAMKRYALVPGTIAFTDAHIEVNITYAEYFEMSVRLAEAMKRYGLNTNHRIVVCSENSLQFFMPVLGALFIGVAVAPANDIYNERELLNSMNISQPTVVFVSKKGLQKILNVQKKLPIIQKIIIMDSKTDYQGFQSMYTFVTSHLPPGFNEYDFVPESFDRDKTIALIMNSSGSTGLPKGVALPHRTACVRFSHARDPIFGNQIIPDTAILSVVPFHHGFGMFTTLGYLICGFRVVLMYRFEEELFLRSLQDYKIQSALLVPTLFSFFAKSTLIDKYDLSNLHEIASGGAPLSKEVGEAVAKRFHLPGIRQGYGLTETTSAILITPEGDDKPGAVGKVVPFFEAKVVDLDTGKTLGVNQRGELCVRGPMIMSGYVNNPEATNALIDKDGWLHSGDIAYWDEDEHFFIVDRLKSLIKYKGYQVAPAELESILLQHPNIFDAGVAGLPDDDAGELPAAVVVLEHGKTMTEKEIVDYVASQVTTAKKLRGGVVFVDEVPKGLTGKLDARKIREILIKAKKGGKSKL

SMILES | Potency | activity change, negative = inhibition
COC(=O)c1ccc(OCC(=O)c2ccccc2)cc1 | active: 7.57 µM | –
COc1ccc(NC(=O)c2ccc(-n3nc(C)cc3C)cc2)cc1OC | active: 15.1 µM | –
COc1ccc(-n2nc(C(=O)NCC(=O)NC3CCCCCC3)c3ccccc3c2=O)cc1OC | inconclusive: 23.9 µM [inhibitor, partial curve] | –
Cc1cccc2nc(C(=O)Nc3cccc(C(=O)NC4CC4)c3)cn12 | active: 2.39 µM | –
Cc1ccc(CNc2ccc(-c3nc(-c4cccnc4)no3)cc2[N+](=O)[O-])cc1 | inconclusive: 10.7 µM [inhibitor, partial curve] | –
O=C(CCC(=O)Nc1cccc(Cl)c1)N/N=C/c1cc([N+](=O)[O-])ccc1O | inconclusive: 26.9 µM [inhibitor, partial curve, poor fit] | –
O=C(N/C(=C/c1ccc2c(c1)OCO2)C(=O)N1CCOCC1)c1cccs1 | – | inactive: -0.194%
COc1cc(OC)cc(-c2nnc(SCc3c(F)cccc3Cl)o2)c1 | inconclusive: 16.9 µM [inhibitor, partial curve] | –
C/C(=N\NC(=O)c1cccc(Cl)c1)C1C(=O)c2ccccc2C1=O | inconclusive: 23.9 µM [inhibitor, single point] | –
COc1ccc(-c2noc(-c3ccccc3OCC(=O)Nc3ccc(C(C)=O)cc3)n2)cc1 | – | inactive: -1.21%
Cc1ccc(C(=O)N/N=C/C=C/c2ccccc2)o1 | inconclusive: 26.9 µM [inhibitor, single point] | –
O=C(CSc1nnc(-c2ccc(O)cc2)o1)Nc1ccccc1 | inconclusive: 23.9 µM [inhibitor, partial curve, poor fit] | –
NC(=S)N/N=C/c1ccccc1 | – | inactive: -0.234%
O=C(CSc1nnc(-c2cccc(F)c2)o1)Nc1nncs1 | inconclusive: 37.9 µM [inhibitor, partial curve, poor fit] | –
Cc1cc(OCC(=O)O/N=C(\N)Cc2cccs2)ccc1Br | inconclusive: 26.9 µM [inhibitor, partial curve, poor fit] | –
Cc1cccc(N2CCN(C(=O)c3ccc4ncsc4c3)CC2)c1C | inconclusive: 26.9 µM [inhibitor, partial curve] | –
Cc1nc(C)c(-c2csc(NCc3ccccc3)n2)s1 | inconclusive: 23.9 µM [inhibitor, partial curve] | –
CCC(=O)Nc1ccc(N2CCCCC2)cc1 | inconclusive: 26.9 µM [inhibitor, single point] | –
COc1ccccc1NS(=O)(=O)c1cccc(C(=O)NNC(=O)c2ccc(NC(C)=O)cc2)c1 | – | inactive: 3.05%
Cc1ccc(N2C(=O)SC(Cc3ccccc3)C2=O)cc1 (centres undefined) | inconclusive: 15.1 µM [inhibitor, partial curve] | –
O=C(c1ccc2ccccc2c1)C1CCCN(C(=O)c2noc3c2CCCC3)C1 (centres undefined) | inconclusive: 23.9 µM [inhibitor, partial curve, poor fit] | –
CCSc1ccccc1C(=O)n1nnc2ccccc21 | inconclusive: 37.9 µM [inhibitor, partial curve, poor fit] | –
O=C(Nc1ccc(F)c(Cl)c1)C1CCCN(c2ncnc3onc(-c4ccc(F)cc4)c23)C1 (centres undefined) | – | inactive: -1.74%

SMILES | Potency | activity change, negative = inhibition
CCn1c(=O)cc(SCC(=O)N2CCN(C3CCCCC3)CC2)c2ccccc21 | – | inactive: 3%
CCOc1ccc(NC(=O)c2cccc(N3CCCS3(=O)=O)c2)cc1 | inconclusive: 21.3 µM [inhibitor, partial curve] | –
Cc1ccc(C)c(N2CCN(C(=O)CN3C(=O)COc4ccc(S(=O)(=O)N5CCOCC5)cc43)CC2)c1 | – | inactive: 0.726%
COc1ccc(-n2c(SCC(C)=O)nc3sc(C)c(C)c3c2=O)cc1 | – | inactive: 0.209%
COc1cc(Cl)ccc1OCc1cc(C(=O)N2CC[C@@H]3CCCC[C@H]3C2)no1 | active: 23.9 µM | –
Cc1sc(N)nc1-c1ccc(Oc2ccccc2)cc1 | active: 23.9 µM | –
Cc1cccc(-c2cc(NC(=O)c3ccccc3C)n(-c3ccccc3)n2)c1 | active: 10.7 µM | –
O=C(Nc1nc(-c2ccc(Oc3ccccc3)cc2)cs1)C1=COCCO1 | inconclusive: 19 µM [inhibitor, partial curve] | –
CCc1ccc(NC(=O)c2ccc(OC)c([N+](=O)[O-])c2)cc1 | inconclusive: 12 µM [inhibitor, partial curve] | –
O=C(Nc1ccc(NC(=O)C23CC4CC(CC(C4)C2)C3)cn1)c1ccco1 | active: 6.01 µM | –
COc1ccccc1NC(=O)C(=O)NNS(=O)(=O)c1ccc2ccccc2c1 | inconclusive: 37.9 µM [inhibitor, single point] | –
COc1cc(/C=C2/C(=O)NN(c3cccc(Cl)c3)C2=O)cc(OC)c1O | active: 21.3 µM | –
Cc1c(Cl)ccc2sc(N3CCN(C(=O)CCS(=O)(=O)c4ccc(F)cc4)CC3)nc12 | – | inactive: -15.5%
COc1ccc(-c2nc3ccccc3n2Cc2ccccc2)cc1 | inconclusive: 26.9 µM [inhibitor, single point] and inconclusive: 37.9 µM [inhibitor, single point] | –
CCOc1ccc2nc(N(Cc3cccnc3)C(=O)c3cccs3)sc2c1 | inconclusive: 16.9 µM [inhibitor, partial curve] | –
COc1cccc(C(=O)Nc2nc(-c3nnn(-c4ccccc4C(F)(F)F)c3C)ns2)c1 | inconclusive: 2.13 µM [inhibitor, partial curve, poor fit] | –
CCC(C)(C)C1CCC(=NNC(=O)c2ccoc2C)CC1 (centres undefined) | inconclusive: 26.9 µM [inhibitor, partial curve, poor fit] | –
CCc1nnc(NC(=O)c2sc3nc(C)cc(COC)c3c2N)s1 | inconclusive: 37.9 µM [inhibitor, partial curve, poor fit] | –
COC(=O)CSc1nc(N)nc(C)c1Cl | inconclusive: 26.9 µM [inhibitor, partial curve, poor fit] | –
O=C(Nc1nccs1)c1ccc(Br)c(S(=O)(=O)N2CCCC2)c1 | inconclusive: 33.8 µM [inhibitor, single point] | –
c1ccc(-c2cc3ccccc3[nH]2)cc1 | active: 19 µM | –
CCOC(=O)C1(Cc2ccccc2)CCCN(C2CCN(C(C)=O)CC2)C1 (centres undefined) | – | inactive: 0.768%
O=C(O)c1ccc(/C=C2\SC(=S)N(Nc3ccccc3)C2=O)cc1 | inconclusive: 23.9 µM [inhibitor, single point] | –

SMILES | Potency | activity change, negative = inhibition
CC(C)c1ccc(/C=N/Nc2cc(N3CCOCC3)nc(N3CCOCC3)n2)cc1 | – | inactive: 2.76%
CC(C)(C)c1ccc(C(=O)NCC(c2ccco2)S(=O)(=O)c2ccccc2)cc1 (centres undefined) | – | inactive: -2.36%
COc1cc(/C=C(\CC(=O)O)c2nc3ccccc3s2)cc(OC)c1O | inconclusive: 16.9 µM [inhibitor, partial curve] | –
Cc1ccc(NC(=O)c2ccc(Cn3cc(Br)cn3)o2)cc1 | inconclusive: 30.1 µM [inhibitor, partial curve, poor fit] | –
O=C(Nc1cccn2ncnc12)c1ccc(Cl)cc1 | – | inactive: -14.4%
COc1ccc(C(=O)Oc2c(Sc3ccccc3)c(C)nn2-c2ccccc2)c(OC)c1 | – | inactive: -6.58%
O=C(Nc1ccc(-c2nc3c(ccc4ccccc43)o2)cc1)c1ccco1 | inconclusive: 9.53 µM [inhibitor, partial curve, poor fit] | –
O=C(N/N=C/c1ccccn1)c1cc(-c2ccc(Cl)cc2)nc2ccccc12 | active: 6.75 µM | –
Cc1nc2ccc(NC(=O)N3CCC(c4ccccc4)C3)cc2nc1C (centres undefined) | inconclusive: 16.9 µM [inhibitor, partial curve, poor fit] | –
CCCc1ccc(-c2ccc(-c3noc(-c4ccncc4)n3)cc2)nc1 | inconclusive: 7.57 µM [inhibitor, partial curve, poor fit] | –
COc1ccccc1C(=O)NCCC(=O)NCc1cccnc1 | – | inactive: -1.07%
O=C1CC(c2ccccc2)Sc2ccccc2N1Cc1ccccc1F (centres undefined) | inconclusive: 13.5 µM [inhibitor, partial curve] | –
O=C(Nc1cc(Br)ccc1O)c1cc(-c2cccs2)on1 | inconclusive: 4.78 µM [inhibitor, partial curve, poor fit] | –
CN(C)C(CNC(=O)CCNC(=O)c1ccc(Cl)cc1)c1ccco1 (centres undefined) | – | inactive: 3.07%
Cc1ccc(CN2CN(S(=O)(=O)c3cccs3)c3nc4ccccc4nc32)cc1 | inconclusive: 26.9 µM [inhibitor, partial curve, poor fit] | –
COc1cccc(C2=NO[C@@H]3C(=O)N(c4ccc5c(c4)OCCO5)C(=O)[C@H]23)c1OC | inconclusive: 30.1 µM [inhibitor, partial curve, poor fit] | –
COc1ccc(CNC(=O)CCC2N=C3c4ccccc4N=C(SCC(=O)NCCc4ccc(OC)c(OC)c4)N3C2=O)cc1 (centres undefined) | – | inactive: -1.42%
O=C(O)c1ccccc1C(=O)N1N=C2/C(=C/c3cccc([N+](=O)[O-])c3)CCCC2C1c1cccc([N+](=O)[O-])c1 (centres undefined) | inconclusive: 30.1 µM [inhibitor, partial curve, poor fit] | –
CCc1ccccc1Nc1cc(C(=O)NCc2ccccn2)c2ccccc2n1 | active: 16.9 µM | –
O=C(Nc1nc(-c2ccc3c(c2)OCO3)cs1)c1ccncc1 | inconclusive: 9.53 µM [inhibitor, partial curve] | –
CC(=O)N1CCCc2cc(S(=O)(=O)N(C)CC(=O)Nc3ccc(C(C)C)cc3)ccc21 | inconclusive: 16.9 µM [inhibitor, partial curve] | –
COc1ccc(CNC(=O)c2cc3c(=O)n(Cc4ccco4)ccc3nc2C)c(OC)c1 | – | inactive: -4.78%
COC(=O)C1CCN(C(=O)c2oc3c(Cl)cc(C)cc3c2C)CC1 | active: 10.7 µM | –
